The supplement of paper PMC3334620
In all, about 33,000 sequences were measured (“E-score (-0.5 to 0.5)”: median about -0.012, highest 2% from about 0.29 on). The list shows a part of the results.

Target: T1, Ybr033w (UniProt P38073)
T1 sequence: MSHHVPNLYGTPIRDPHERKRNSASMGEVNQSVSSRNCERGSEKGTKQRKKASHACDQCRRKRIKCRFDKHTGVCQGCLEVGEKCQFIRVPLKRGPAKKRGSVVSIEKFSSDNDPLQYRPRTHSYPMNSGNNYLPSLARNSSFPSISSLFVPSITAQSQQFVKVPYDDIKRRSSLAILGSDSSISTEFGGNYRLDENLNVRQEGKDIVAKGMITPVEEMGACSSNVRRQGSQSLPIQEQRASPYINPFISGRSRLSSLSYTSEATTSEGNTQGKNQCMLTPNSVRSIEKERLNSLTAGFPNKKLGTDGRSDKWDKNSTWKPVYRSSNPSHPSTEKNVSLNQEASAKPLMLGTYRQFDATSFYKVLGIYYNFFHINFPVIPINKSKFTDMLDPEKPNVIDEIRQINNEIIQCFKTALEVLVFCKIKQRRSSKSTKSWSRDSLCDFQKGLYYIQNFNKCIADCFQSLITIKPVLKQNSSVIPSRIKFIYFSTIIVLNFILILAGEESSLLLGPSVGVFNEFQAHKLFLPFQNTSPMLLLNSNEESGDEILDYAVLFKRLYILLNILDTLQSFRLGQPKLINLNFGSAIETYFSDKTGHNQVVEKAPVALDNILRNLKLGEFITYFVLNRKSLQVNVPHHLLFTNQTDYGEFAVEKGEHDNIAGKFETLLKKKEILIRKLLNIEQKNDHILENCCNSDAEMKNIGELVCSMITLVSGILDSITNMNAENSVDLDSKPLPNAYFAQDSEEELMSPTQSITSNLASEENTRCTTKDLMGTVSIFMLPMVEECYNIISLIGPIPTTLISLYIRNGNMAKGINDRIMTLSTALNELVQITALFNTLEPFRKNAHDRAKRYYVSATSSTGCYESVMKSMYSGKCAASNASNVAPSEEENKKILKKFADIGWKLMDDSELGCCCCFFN
Test: PBM E-score (8-mer binding enrichment) (E-score (-0.5 to 0.5)); higher = stronger / more preferred TF binding; most listed sequences are background and not binding sites
Settings: protein concentration: 200 nM; construct: GST-full length
Method: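 Universal 'all 10-mer' protein binding microarrays (Agilent AMADID 015681) probed with GST-tagged S. cerevisiae TFs (full-length or DBD) made by in vitro transcription/translation (PURExpress), about 100-200 nM. Bound TF was detected with fluorescent anti-GST. Each ungapped 8-mer (which stands for itself and its reverse complement) is scored by the PBM enrichment score (E-score), a modified Wilcoxon-Mann-Whitney statistic from -0.5 to +0.5, computed with the Universal PBM Analysis Suite. Scale: above 0.35 generally sequence-specific binding.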

Sequence | PBM E-score
CATGCGAA | 0.115
CTGTAAAG | 0.0804
CCCTCATC | -0.264
AAGGCGTC | -0.215
TAGATACA | 0.23
ACCATGCC | -0.0448
GTCGAGGA | -0.224
AACCACAG | -0.0335
CAGGCCGG | -0.293
GCCGTACC | -0.0432
ACGAAATA | 0.0653
ATCGTCAG | -0.178
ATCACTGA | 0.0336
CTACTGCA | -0.0757
CGCCTGTC | -0.27
CAGTCAGG | -0.0906
CAAGAGAG | -0.0202
GAAATATA | 0.327
ATCATTAC | 0.186
ATACTGTG | -0.0238
ATTACTCG | 0.132
ATGTGAGA | -0.0149
CGTGGCTC | -0.201
ATAGTCGC | -0.0353
CAACCCTA | -0.15

Sequence | PBM E-score
CCTCGCCC | -0.127
ACCACTCA | -0.0754
CCGCATTC | 0.00482
AAGCCAGC | -0.0802
CCGGCCTA | -0.015
CTTCTATC | -0.0659
CGCGGCCA | -0.218
AATGGCTG | 0.033
AGAACTTG | 0.223
CATCCTCC | -0.103
GTAGCTTA | 0.107
TATCTACA | 0.188
CCGCCATC | -0.137
GAGGTAAC | 0.0868
ACAAGAAC | 0.235
GTTGATTA | 0.27
CAGCACAA | 0.0574
ACGGGGCT | -0.335
CTAATCAG | 0.00376
GGGTCAGA | -0.32
CTCTACAA | 0.055
AGATACAA | 0.292
CACCGAGA | -0.117
AAGCGGGA | 0.0463
ACAGCGGA | -0.0436

Sequence | PBM E-score
CCAACTGC | -0.0491
AACCGCAC | -0.0594
CCTTGATC | 0.0691
CGCCCCAG | -0.207
ACATGAAG | 0.061
CATCATTA | 0.279
CACAATGG | 0.172
AGCATATA | 0.119
AGCGGCGG | 0.0715
GAGCATGC | -0.124
TTATATAA | 0.411
CGTACATC | -0.0343
ATGAGGGG | -0.206
ATACTCAC | 0.153
GAGTAAGC | -0.05
CATAAACG | 0.0742
ACACATCG | -0.0899
ATTGCTTA | 0.24
ACCAGAAT | 0.0712
ATAACGGC | 0.17
CTGTCGCA | -0.121
ATTTGCAC | 0.0602
CAGCTTAG | -0.132
GCCCGCCA | -0.251
CCACAGCG | 0.0277

Sequence | PBM E-score
GGCGTCAA | -0.123
ATTTTGTG | 0.291
ACCCGCAT | 0.00348
GCACATGC | -0.195
GATTAGAC | 0.0967
AGCGGACC | -0.266
CCGGATTA | 0.34
GGTGCTAC | -0.21
CCAGCCTA | -0.18
TACTCAAA | 0.266
CCGTGTTC | 0.192
ACTTTGCA | 0.259
ACCGATCA | 0.175
ATTGGTAC | 0.0837
TACATGCA | -0.0292
AACGAATC | 0.108
CCCTTCCA | -0.186
ACGATATC | 0.0478
GATTGAAC | 0.189
ACCCAACT | 0.0118
CAATAAAC | 0.193
AATTGTTA | 0.314
CAAAAACA | 0.124
AATGCTCG | 0.155
AACCCCGC | 0.0465

Sequence | PBM E-score
AGCTTTGC | -0.0249
ACGAGAAA | 0.187
AAATTGTC | 0.192
AAGTCCCG | -0.245
AAGTTAAT | 0.315
ACATATCC | 0.105
ACTGTTCC | 0.00585
TAGATGCA | -0.00507
GAGCCTCC | -0.139
AGTCGCGG | -0.291
CACTAGAG | 0.0571
TGCGGAAA | 0.213
ACGTTACA | 0.0604
CGGGCTAG | -0.164
GGTGGAAC | 0.147
TCTCGAAA | 0.104
AACAGCGG | -0.146
GTCCGCAC | -0.0592
GATGAGCA | 0.125
CAATTGCA | -0.167
ACGGACGT | -0.144
CACAAAGC | -0.0711
AATAGAAA | 0.163
ACAAGCAG | 0.0802
CACTTGCG | -0.00562

Sequence | PBM E-score
ATGTGCGC | -0.00629
CCCGACCA | 0.00448
CGCTCGGC | -0.0689
AGGCGTAG | -0.194
CGGCTTCA | 0.129
CAGTGGAG | -0.0254
CCACCTTC | -0.0528
CCCCGCAA | 0.00531
CCTCTCAA | -0.0955
GGTTCGAA | 0.173
CAGTGAGG | -0.197
AGTCCCAT | -0.17
TCTGTCCA | -0.0429
CGGATTTC | -0.0307
GAACCCTA | 0.0389
AGAGTTTC | 0.0522
CAGGAGTA | 0.0206
AAATCTCG | 0.0391
TCAGGGGA | -0.0478
CACACTTC | 0.032
CCCGTCAA | -0.132
AGTAGACA | 0.141
CATTGCCG | 0.0273
GATGAATA | 0.239
AAACAGCT | -0.0437

Sequence | PBM E-score
GAAGCAGA | -0.0137
GAAGCCAC | -0.0965
AGGTACGA | -0.0154
AACCTAAA | 0.151
AGATGATA | 0.16
GTGTCGAA | -0.0206
CCACCACA | -0.13
CCGACTTA | 0.104
AACAAAGG | 0.0298
AGCAGGAG | -0.133
AGAGTCAG | -0.2
ATTGTGTA | 0.186
AACCCTGG | -0.065
AGTGGGTG | 0.108
CTTTTTGA | 0.137
CCTTGACA | -0.141
CGCTGTTA | -0.0679
AATGTGTG | 0.152
ACTTAGCC | -0.173
ACATATCT | 0.276
CATGTTCA | -0.104
AATCCTGA | 0.154
